Data from EPA's CvTdb concentration-time database.
Values joined by “and” are separate entries in the source; they are usually repeats but may differ in a detail not shown here. Equal entries are not always repeated. Further values from the same series stand in other lists.

What was measured:
Rat [1] = experiment: concentration in brain after dosing; conditions: 5 min; dosed: 2-Methyltetrahydrofuran; 400 mg/kg; oral; Male; F344
Rat [2] = experiment: concentration in brain after dosing; conditions: 10 min; dosed: 2-Methyltetrahydrofuran; 100 mg/kg; oral; Male; Harlan Sprague Dawley
Rat [3] = experiment: concentration in brain after dosing; conditions: 2 min; dosed: 2-Methyltetrahydrofuran; 30 mg/kg; oral; Male; F344
Rat [4] = experiment: concentration in brain after dosing; conditions: 20 min; dosed: 2-Methyltetrahydrofuran; 30 mg/kg; oral; Male; F344
Rat [5] = experiment: concentration in brain after dosing; conditions: 8 h; dosed: 2-Methyltetrahydrofuran; 400 mg/kg; oral; Male; F344
Rat [6] = experiment: concentration in brain after dosing; conditions: 0.5 h; dosed: 2-Methyltetrahydrofuran; 30 mg/kg; oral; Female; F344
Rat [7] = experiment: concentration in brain after dosing; conditions: 2 h; dosed: 2-Methyltetrahydrofuran; 10 mg/kg; oral; Female; F344
Rat [8] = experiment: concentration in brain after dosing; conditions: 20 min; dosed: 2-Methyltetrahydrofuran; 10 mg/kg; oral; Male; F344
Rat [9] = experiment: concentration in plasma after dosing; conditions: 1 h; dosed: 2-Methyltetrahydrofuran; 30 mg/kg; oral; Male; F344
Rat [10] = experiment: concentration in plasma after dosing; conditions: 20 min; dosed: 2-Methyltetrahydrofuran; 30 mg/kg; oral; Male; F344
Rat [11] = experiment: concentration in plasma after dosing; conditions: dosed: Bromochloroacetic acid, 80 mg/kg, iv, Female, Harlan Sprague-Dawley
Rat [12] = experiment: concentration in plasma after dosing; conditions: dosed: Bromochloroacetic acid, 80 mg/kg, iv, Female, Harlan Sprague-Dawley; remark: listed apart in the source
Rat [13] = experiment: concentration in plasma after dosing; conditions: dosed: Formamide, 90 mg/kg, iv, Male, Harlan Sprague Dawley
Rat [14] = experiment: concentration in plasma after dosing; conditions: 10 min; dosed: Pyridine; 200 mg/kg; oral; Female; F344
Rat [15] = experiment: concentration in plasma after dosing; conditions: 1 h; dosed: Pyridine; 5 mg/kg; iv; Male; F344
Rat [16] = experiment: concentration in plasma after dosing; conditions: 2 h; dosed: Pyridine; 200 mg/kg; oral; Female; Harlan Sprague Dawley
Rat [17] = experiment: concentration in plasma after dosing; conditions: dosed: Pyridine, 5 mg/kg, iv, Male, F344
Rat [18] = experiment: concentration in plasma after dosing; conditions: 1 h; dosed: Pyridine; 50 mg/kg; oral; Female; F344
mouse = experiment: concentration in blood after dosing; negative times count back from the end of exposure; conditions: dosed: tert-amyl methyl ether, inhalation, duration: 6 hr, CD-1 (Charles River)
How it was run: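 Data points giving concentration or amount against time came from published in vivo toxicokinetic studies and from two structured collections. PubMed searching, classifier screening and manual review located the studies. Most points were digitised from plot screenshots using WebPlotDigitizer, the rest were copied from tables, and all keep their reported units.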

CC1CCCO1 (centres undefined) [2-Methyltetrahydrofuran]
Conditions	concentration in brain [µg/g]	concentration in plasma [ng/mL]
Rat [1]	135	–
Rat [2]	45.6	–
Rat [3]	3.13	–
Rat [4]	14.7	–
Rat [5]	49.9	–
Rat [6]	9.19	–
Rat [7]	0.0568	–
Rat [8]	2.43	–
Rat [9]	–	15700
Rat [10]	–	20000

O=C(O)C(Cl)Br (centres undefined) [Bromochloroacetic acid]
concentration in plasma [ng/mL]
Conditions	1 h	2 h	3 h
Rat [11]	15100	–	1060
Rat [12]	22000	3760	–

NC=O [Formamide]
Rat [13]
Conditions	concentration in plasma [ng/mL]
1 h	166000
3 h	154000

c1ccncc1 [Pyridine]
Conditions	concentration in plasma [ng/mL]
Rat [14]	60500
Rat [15]	4120
Rat [16]	74100
Rat [18]	24500

Rat [17]
Conditions	concentration in plasma [ng/mL]
3 h	2830
10 h	112

CCC(C)(C)O [tertiary amyl alcohol]
mouse
Conditions	concentration in blood
0.1308 h, 2500 ppm, female	204000 ng/mL
0.1313 h, 2500 ppm, female	201000 ng/mL
0.1316 h, 2500 ppm, female	199000 ng/mL
0.2591 h, 2500 ppm, female	192000 ng/mL
0.2603 h, 2500 ppm, female	185000 ng/mL
0.2715 h, 100 ppm, male	614 ng/mL
0.2886 h, 2500 ppm, female	206000 ng/mL
0.295 h, 100 ppm, male	741 ng/mL
0.2966 h, 100 ppm, male	955 ng/mL
0.2981 h, 100 ppm, male	1160 ng/mL
0.4487 h, 100 ppm, male	201 ng/mL
0.4517 h, 100 ppm, male	595 ng/mL
0.5742 h, 2500 ppm, female	199000 ng/mL
0.6349 h, 100 ppm, female	278 ng/mL
0.6405 h, 2500 ppm, female	179000 ng/mL
0.6424 h, 2500 ppm, female	167000 ng/mL
0.6782 h, 100 ppm, female	554 ng/mL
0.9478 h, 500 ppm, female	20800 ng/mL
0.9588 h, 2500 ppm, female	164000 ng/mL
0.9668 h, 100 ppm, male	149 ng/mL
0.9781 h, 500 ppm, female	17000 ng/mL and 18500 ng/mL
0.9818 h, 100 ppm, female	335 ng/mL and 287 ng/mL
0.9884 h, 100 ppm, male	25 ng/mL
0.9893 h, 2500 ppm, female	172000 ng/mL
0.9962 h, 2500 ppm, female	128000 ng/mL
1.003 h, 100 ppm, female	125 ng/mL
1.867 h, 100 ppm, male	2.41 ng/mL
1.892 h, 100 ppm, female	48.3 ng/mL
2.106 h, 2500 ppm, female	102000 ng/mL
2.107 h, 2500 ppm, female	101000 ng/mL
2.108 h, 2500 ppm, female	91400 ng/mL
2.111 h, 2500 ppm, female	74100 ng/mL
3.964 h, 100 ppm, male	2.1 ng/mL
4.082 h, 100 ppm, female	36.2 ng/mL
4.14 h, 2500 ppm, female	34800 ng/mL
4.145 h, 2500 ppm, female	2360 ng/mL
4.164 h, 500 ppm, female	122 ng/mL
4.177 h, 2500 ppm, female	1090 ng/mL
9.983 h, 100 ppm, male	8.69 ng/mL
9.989 h, 500 ppm, female	380 ng/mL
10.06 h, 2500 ppm, female	995 ng/mL
10.24 h, 100 ppm, female	57.8 ng/mL
17.88 h, 500 ppm, female	214 ng/mL
18.11 h, 2500 ppm, female	1280 ng/mL
18.2 h, 100 ppm, female	39.2 ng/mL
22 s, 100 ppm, female	7520 ng/mL and 4770 ng/mL and 3120 ng/mL
58 min, 100 ppm, male	123 ng/mL
245 s, 500 ppm, female	53600 ng/mL and 27300 ng/mL
254 s, 2500 ppm, female	185000 ng/mL
354 s, 500 ppm, female	26800 ng/mL and 58300 ng/mL

mouse, during exposure
Conditions	concentration in blood
-216 s, 100 ppm, male	1500 ng/mL
-212 s, 100 ppm, male	1660 ng/mL
-137 s, 100 ppm, male	1420 ng/mL
-136 s, 100 ppm, male	1450 ng/mL
-56 s, 100 ppm, female	1920 ng/mL
-6 h, 100 ppm, female	19.2 ng/mL
-5.909 h, 500 ppm, female	815 ng/mL
-5.843 h, 2500 ppm, female	5900 ng/mL
-5.805 h, 100 ppm, female	238 ng/mL and 390 ng/mL
-5.781 h, 2500 ppm, female	17300 ng/mL and 14800 ng/mL
-5.78 h, 2500 ppm, female	8860 ng/mL
-5.757 h, 500 ppm, female	5400 ng/mL and 4680 ng/mL and 8350 ng/mL
-5.727 h, 500 ppm, female	4180 ng/mL and 2750 ng/mL and 1830 ng/mL
-5.696 h, 100 ppm, female	562 ng/mL and 647 ng/mL
-5.575 h, 500 ppm, female	9470 ng/mL
-5.566 h, 100 ppm, female	781 ng/mL
-5.545 h, 500 ppm, female	11500 ng/mL
-5.523 h, 100 ppm, female	933 ng/mL
-5.404 h, 2500 ppm, female	25700 ng/mL
-5.213 h, 2500 ppm, female	17300 ng/mL
-5.15 h, 500 ppm, female	8650 ng/mL
-5.068 h, 100 ppm, female	1120 ng/mL
-5.059 h, 500 ppm, female	9670 ng/mL
-5.046 h, 100 ppm, female	951 ng/mL and 1080 ng/mL
-5.029 h, 500 ppm, female	16700 ng/mL and 21400 ng/mL and 18500 ng/mL
-4.959 h, 100 ppm, female	1290 ng/mL
-4.902 h, 2500 ppm, female	54800 ng/mL
-4.874 h, 2500 ppm, female	74200 ng/mL
-4.871 h, 2500 ppm, female	58200 ng/mL
-3.998 h, 500 ppm, female	30300 ng/mL and 33000 ng/mL
-3.967 h, 500 ppm, female	25700 ng/mL and 32700 ng/mL
-3.962 h, 100 ppm, female	1010 ng/mL
-3.962 h, 2500 ppm, female	103000 ng/mL
-3.96 h, 2500 ppm, female	91500 ng/mL
-3.957 h, 2500 ppm, female	71700 ng/mL
-3.94 h, 100 ppm, female	2150 ng/mL and 1910 ng/mL
-2.025 h, 500 ppm, female	44300 ng/mL and 48900 ng/mL
-1.943 h, 100 ppm, male	2850 ng/mL
-1.942 h, 2500 ppm, female	118000 ng/mL
-1.919 h, 2500 ppm, female	177000 ng/mL
-1.916 h, 2500 ppm, female	157000 ng/mL
-1.915 h, 2500 ppm, female	152000 ng/mL
